Out of some 310,000 compounds screened, about 14,000 (4.5%) showed an effect of 50% or more. Effects have a minus sign here. The list shows a part of the results.
target: human ether-à-go-go-related gene (hERG) potassium channel (human, UniProt Q12809); experiment: primary screen, population patch clamp on CHO cells stably expressing hERG
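Note: peak tail current of the secondary pulse compared with the same well before compound.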

Chain of human ether-à-go-go-related gene (hERG) potassium channel (Q12809 whole entry, looked up): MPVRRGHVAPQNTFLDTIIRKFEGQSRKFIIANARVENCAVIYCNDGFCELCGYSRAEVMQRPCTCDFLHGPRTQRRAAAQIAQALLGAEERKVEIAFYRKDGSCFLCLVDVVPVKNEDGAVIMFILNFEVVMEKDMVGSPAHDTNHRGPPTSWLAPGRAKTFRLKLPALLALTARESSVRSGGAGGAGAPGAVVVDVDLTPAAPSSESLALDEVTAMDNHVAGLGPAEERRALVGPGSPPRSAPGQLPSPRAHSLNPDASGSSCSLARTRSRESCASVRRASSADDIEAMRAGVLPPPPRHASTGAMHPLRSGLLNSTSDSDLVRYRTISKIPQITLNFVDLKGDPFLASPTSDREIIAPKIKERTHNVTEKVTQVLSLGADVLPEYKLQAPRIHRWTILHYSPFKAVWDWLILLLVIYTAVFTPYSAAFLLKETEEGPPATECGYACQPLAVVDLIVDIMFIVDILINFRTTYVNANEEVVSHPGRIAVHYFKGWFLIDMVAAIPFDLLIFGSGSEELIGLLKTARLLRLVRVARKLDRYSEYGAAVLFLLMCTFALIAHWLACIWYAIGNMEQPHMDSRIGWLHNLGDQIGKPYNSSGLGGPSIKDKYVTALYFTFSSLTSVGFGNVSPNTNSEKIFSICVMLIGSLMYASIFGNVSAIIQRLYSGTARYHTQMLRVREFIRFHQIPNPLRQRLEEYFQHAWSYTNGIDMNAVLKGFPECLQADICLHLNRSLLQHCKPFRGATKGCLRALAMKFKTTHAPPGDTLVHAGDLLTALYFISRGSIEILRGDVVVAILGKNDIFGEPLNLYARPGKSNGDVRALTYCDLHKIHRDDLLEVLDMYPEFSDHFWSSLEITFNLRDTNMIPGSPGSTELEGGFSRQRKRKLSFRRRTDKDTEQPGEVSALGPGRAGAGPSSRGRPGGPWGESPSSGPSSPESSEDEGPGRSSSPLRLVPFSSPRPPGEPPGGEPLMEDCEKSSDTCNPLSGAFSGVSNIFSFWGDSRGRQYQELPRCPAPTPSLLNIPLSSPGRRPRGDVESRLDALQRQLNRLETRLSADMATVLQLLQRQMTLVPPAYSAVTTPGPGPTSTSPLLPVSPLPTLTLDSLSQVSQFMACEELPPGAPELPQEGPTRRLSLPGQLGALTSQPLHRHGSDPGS

SMILES | hERG current change (%, negative = inhibition) at 10uM [%]
COC(=O)c1cnc(N2CCCN(S(=O)(=O)c3ccc(C(F)(F)F)cc3)CC2)nc1C(F)(F)F | 5.87
Cc1c(C(=O)N(C)c2ccc(Cl)cc2)cnn1-c1ccccc1 | 3.59
CCOc1ccc(NC(=O)c2cccc3c2C(=O)N(CC2CCCO2)C3)cc1 (centres unmarked) | -5.79
O=C(N/N=C/c1ccsc1)c1cc(-c2ccncc2)nc2ccccc12 | -28.5
CCC(C(=O)O)n1cnc2scc(-c3ccc(C)c(C)c3)c2c1=O (centres unmarked) | 19.1
COc1ccc(Cc2n[nH]c(=S)n2Cc2ccccc2)cc1Cl | -22.3
CCCC(=O)N(CCN1CCOCC1)c1nc2c(C)ccc(C)c2s1.Cl | -4.63
COc1ccccc1CNC(=O)C1CC(c2c(Cl)cccc2Cl)=NO1 (centres unmarked) | -17.8
Cc1c(C)n(C)c2ccc(C(=O)NCc3cccs3)cc12 | -19.7
Cc1ccc(Cn2ccsc2=NC(=O)CCl)cc1 | 25
O=C(Nc1cc(F)cc(F)c1)c1sc(Cl)nc1-c1ccccc1 | 0.238
CC(NC(=O)c1cc(COc2ccccc2)on1)c1nccs1 (centres unmarked) | -4.41
CCN(CC)S(=O)(=O)c1ccc(N2CCN(C)CC2)c(NC(=O)Nc2ccccc2F)c1 | -21
Cc1cc(NC(=O)CSc2nnc(N)s2)c([N+](=O)[O-])cc1C | 5.07
COC(=O)C1=C(C)NC(C)=C(C(=O)OC)C1c1cn(-c2ccccc2)nc1-c1ccco1 | 8.61
CCC1CCCCN1C(=O)Nc1cccc(NC(=O)N2CCCCC2CC)c1 (centres unmarked) | 9.57
Cc1ccc(N/C=C/C(=O)c2ccc(C)cc2)cc1 | -2.78
Cc1ccc(NC(=O)NCCCN2CCOCC2)cc1 | 4.63
CC(/C=C/c1ccccc1)=N/NC(=O)c1nc2nc(C)cc(C)n2n1 | -14.7
Cc1csc(=O)n1CC(=O)OCC(=O)NCc1ccc(Cl)cc1Cl | -3.2

SMILES | hERG current change (%, negative = inhibition) at 10uM [%]
Cc1cc(-c2csc(NC(=O)c3ccc(S(=O)(=O)N(C)C)cc3)n2)c(C)n1-c1ccccc1 | 2.83
CCCCc1nc2sc3c(=O)n(N)cnc3c2c2c1CCC2 | 3.93
COCCNC(=O)c1cccc(OC2CCN(Cc3ccc(Cl)c(F)c3)CC2)c1 | -37.5
COC(=O)c1ccccc1NC(=O)COC(=O)c1ccco1 | 0.914
Cc1cc(NC(=O)CSCC(=O)Nc2nc3ccccc3s2)no1 | -6.12
COc1ccc(C(=O)/C=C(\C)NCc2ccc3c(c2)OCO3)cc1 | -35.8
COc1ccc(NC(C)=O)cc1NC(C)C(=O)Nc1ccc(S(=O)(=O)N2CCCCC2)cc1 (centres unmarked) | 0.782
Cc1ccc(C(=O)Nc2ccc(SC(F)F)cc2)s1 | 24.4
CCN(CC(=O)Nc1ccc(C)c(F)c1)CC(=O)NC(C)(C)C | 12.4
Cc1nc2ccc3[nH]snc3c2n1 | -0.204
C=CCOc1ccccc1/C=N/NC(=O)c1ccc(Cl)cc1Cl | -6.98
COc1ccccc1-c1nc2cc3ccccc3cc2nc1-c1ccccc1OC | -4.3
COc1ccc(NC(=O)c2ccc3ncsc3c2)cc1 | 14.1
Cc1ccc(CNC(=O)CCC2CCCN(Cc3cccc4c3OCO4)C2)o1 (centres unmarked) | -63.2
Cc1cnc(NC(=O)Cc2c[nH]c3ccccc23)s1 | -0.557
Cc1cccc(OC(C)C(=O)N2CCCc3ccccc32)c1 (centres unmarked) | -2.93
CC(OC(=O)c1cccs1)C(=O)NCc1ccccc1 (centres unmarked) | -4.81
CC(=O)Nc1ccc(C(=O)NCCN2CCOCC2)cc1 | 15.8
O=C(Nc1ccnn1C1CCN(Cc2ccccc2)CC1)c1ccccc1Cl | -76.1
Cc1ccc(N(CC(O)CN(C)C)S(=O)(=O)c2ccccc2)cc1.Cl (centres unmarked) | -68.1

SMILES | hERG current change (%, negative = inhibition) at 10uM [%]
COc1cccc(/C=N/NC(=O)c2nnn(-c3nonc3N)c2-c2cccs2)c1 | 16.4
O=C1CCC(=O)N1OCCCOc1ccccc1 | -2.09
O=C1CN(C(=O)COc2c(Cl)cccc2Cl)c2ccccc2N1 | -29.1
c1ccc2c(N3CCCCC3)nc(N3CCOCC3)nc2c1 | -33.7
CC1NC(=O)c2ccccc2-n2c1nc1cc(F)ccc1c2=O (centres unmarked) | 0.017
CCOC(=O)N1CCN(Cc2ccccn2)CC1.O=C(O)C(=O)O | 0.59
COc1cccc(C(=O)NNC(=O)Cc2cccs2)c1 | 15.5
CCN(CC)S(=O)(=O)c1cc(NC(=O)c2ccc(-n3cncn3)c([N+](=O)[O-])c2)ccc1C | 7.21
CCOC(=O)C1CCCN(C(=O)Cn2nc(CC)n3c(cc4sccc43)c2=O)C1 (centres unmarked) | -28.1
C[n+]1cc(-c2ccccc2)oc1-c1ccccc1 | 19.1
COc1ccc(-n2c(C)nn(C)c2=O)c(OC)c1 | 4.47
CCn1c(SCC(=O)c2ccc3c(c2)OCCO3)nnc1-c1ccco1 | 0.17
CC(=O)/C=C/c1ccccc1Oc1c(F)c(F)nc(F)c1F | -0.722
O=C(N/N=C/c1ccc2c(c1)OCO2)C(=O)N1CCCC1 | 10.1
C=CCn1c(=O)c(C(=O)NCc2ccccc2Cl)c(O)c2ccccc21 | 9.91
C/C(CC(=O)NCc1ccccc1Cl)=N/NC(=O)c1ccccn1 | 6.76
Clc1ccc(Nc2c3c(nc4ncnn24)CCC3)cc1 | 8.29
CCOc1ccc(-c2nc(C#N)c(N3CCCCCC3)o2)cc1 | -0.783
Cc1nc2cc(C(=O)O)ccc2n1C1CCCCC1 | 7.52

From paper PMC4336329 (PLoS ONE, 2015)
